# From the supplement of paper PMC4604168 (melanoma cell lines)
# The list shows a part of the results. Single values are uncertain, as repeats are few or missing.
# How the values were obtained:
# Assay in all cases: cell count relative to DMSO control; melanoma cells; higher = more viable cells
# Details in all cases: library dose: low library concentration; 72 h
# MeWo = test system: MeWo
# RPMI7951 = test system: RPMI7951
# RVH-421 = test system: RVH-421
# SkMel28 = test system: SkMel28
# SkMel30 = test system: SkMel30
# SkMel5 = test system: SkMel5
# UACC257 = test system: UACC257
# UACC62 = test system: UACC62
# SkMel2 = test system: SkMel2
# MZ2-MEL = test system: MZ2-MEL
# 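Further: cell number obtained by counting DAPI-stained nuclei in high-throughput microscope images with image analysis software, screen run in 1,536-well plates.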
Structure (SMILES),cell count (MeWo) [%],cell count (RPMI7951) [%],cell count (RVH-421) [%],cell count (SkMel28) [%],cell count (SkMel30) [%],cell count (SkMel5) [%],cell count (UACC257) [%],cell count (UACC62) [%],cell count (SkMel2) [%],cell count (MZ2-MEL) [%]
"CN(c1ncccc1CNc1nc(Nc2ccc3c(c2)CC(=O)N3)ncc1C(F)(F)F)S(C)(=O)=O + COc1cc2c(Oc3ccc4[nH]c(C)cc4c3F)ncnc2cc1OCCCN1CCCC1 [cediranib] (first compound 0.08 µM, partner dose 0.4 µM)",100,72.5,89.2,101,118,76.6,78.1,81.8,–,–
"CS(=O)(=O)c1ccc(C(=O)Nc2ccc(Cl)c(-c3ccccn3)c2)c(Cl)c1 [vismodegib] + CN(NC(=O)CC(=O)NN(C)C(=S)c1ccccc1)C(=S)c1ccccc1 [STA4783] (first compound 1 µM, partner dose 0.006 µM)",92.9,124,99.2,113,81.6,103,122,91.5,111,–
"NC1(c2ccc(-c3nc4ccn5c(=O)[nH]nc5c4cc3-c3ccccc3)cc2)CCC1 + C[C@]1(c2nc3c(C(N)=O)cccc3[nH]2)CCCN1 [Veliparib] (first compound 0.4 µM, partner dose 1.4 µM)",83.2,88.5,78.3,50.5,86.6,–,–,64.9,90.1,97.6
"CN(c1ncccc1CNc1nc(Nc2ccc3c(c2)CC(=O)N3)ncc1C(F)(F)F)S(C)(=O)=O + Clc1ccc(Nc2nnc(Cc3ccncc3)c3ccccc23)cc1 [vatalanib] (first compound 0.08 µM, partner dose 2 µM)",81.5,59.1,91,76.9,87.1,–,–,80.6,–,88
"NC1(c2ccc(-c3nc4ccn5c(=O)[nH]nc5c4cc3-c3ccccc3)cc2)CCC1 + Cc1cc(N2CCOCC2)cc2[nH]c(-c3c(NC[C@@H](O)c4cccc(Cl)c4)cc[nH]c3=O)nc12 [BMS536924] (first compound 0.4 µM, partner dose 0.2 µM)",77.8,104,89.5,68.6,60.4,102,88.4,72.3,70.1,–
"CN(c1ncccc1CNc1nc(Nc2ccc3c(c2)CC(=O)N3)ncc1C(F)(F)F)S(C)(=O)=O + CC(=O)c1c(C)c2cnc(Nc3ccc(N4CCNCC4)cn3)nc2n(C2CCCC2)c1=O [palbociclib] (first compound 0.08 µM, partner dose 0.04 µM)",75.9,58.2,86.7,70,73.6,–,–,69.3,–,–
"CN(c1ncccc1CNc1nc(Nc2ccc3c(c2)CC(=O)N3)ncc1C(F)(F)F)S(C)(=O)=O + C#Cc1cccc(Nc2ncnc3cc(OCCOC)c(OCCOC)cc23)c1 [erlotinib] (first compound 0.08 µM, partner dose 0.8 µM)",92.9,62.7,88.1,82.6,100,–,–,79.4,–,85.3
"NC1(c2ccc(-c3nc4ccn5c(=O)[nH]nc5c4cc3-c3ccccc3)cc2)CCC1 + C=CCNC1=C2C[C@@H](C)C[C@H](OC)[C@H](O)[C@@H](C)/C=C(\C)[C@H](OC(N)=O)[C@@H](OC)/C=C\C=C(/C)C(=O)NC(=CC1=O)C2=O [Tanespimycin] (first compound 0.4 µM, partner dose 0.002 µM)",88.9,89.3,73.6,77.2,96.9,–,–,72.4,75.6,91.7
"C=C(c1ccc(C(=O)O)cc1)c1cc2c(cc1C)C(C)(C)CCC2(C)C [Bexarotene] + C=CCNC1=C2C[C@@H](C)C[C@H](OC)[C@H](O)[C@@H](C)/C=C(\C)[C@H](OC(N)=O)[C@@H](OC)/C=C\C=C(/C)C(=O)NC(=CC1=O)C2=O [Tanespimycin] (first compound 2 µM, partner dose 0.002 µM)",94.1,83.3,98.2,75.3,113,–,–,91.5,81.6,97.6
"CCCS(=O)(=O)Nc1ccc(F)c(C(=O)c2c[nH]c3ncc(Cl)cc23)c1F + Cc1cc(N2CCOCC2)cc2[nH]c(-c3c(NC[C@@H](O)c4cccc(Cl)c4)cc[nH]c3=O)nc12 [BMS536924] (first compound 0.08 µM, partner dose 0.2 µM)",95.1,102,73.9,81.1,83.1,87.8,61.7,54.6,–,–
"NC1(c2ccc(-c3nc4ccn5c(=O)[nH]nc5c4cc3-c3ccccc3)cc2)CCC1 + Nc1ccn([C@@H]2O[C@H](CO)[C@@H](O)C2(F)F)c(=O)n1 [gemcitabine] (first compound 0.4 µM, partner dose 0.0004 µM)",80.3,94.4,82,77.5,88.6,–,–,72.7,–,91.1
"CS(=O)(=O)c1ccc(C(=O)Nc2ccc(Cl)c(-c3ccccn3)c2)c(Cl)c1 [vismodegib] + Nc1cccc2c1CN(C1CCC(=O)NC1=O)C2=O [lenalidomide] (first compound 1 µM, partner dose 1 µM)",117,114,112,95.8,106,–,–,99.6,–,103
"NC1(c2ccc(-c3nc4ccn5c(=O)[nH]nc5c4cc3-c3ccccc3)cc2)CCC1 + CO[C@H]1C[C@@H]2CC[C@@H](C)[C@@](O)(O2)C(=O)C(=O)N2CCCC[C@H]2C(=O)O[C@H]([C@H](C)C[C@@H]2CC[C@@H](OCCO)[C@H](OC)C2)CC(=O)[C@H](C)/C=C(\C)[C@@H](O)[C@@H](OC)C(=O)[C@H](C)C[C@H](C)/C=C/C=C/C=C/1C [everolimus] (first compound 0.4 µM, partner dose 0.02 µM)",59.4,60,63.2,51.5,62.8,–,–,54.1,–,56.6
